Here are results for 24 molecules from PubChem BioAssay (NCATS).

A short description of the assay: qHTS Assay for Lipid Storage Modulators (AID 1519). The note with it: Drosophila S3 cells, BODIPY lipid droplet/cell ratio, laser cytometry, cells loaded with oleic acid. Put shortly: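 Cells seeded at 5,000 per well were treated with compounds over a concentration series and loaded with oleic acid (400 uM, as added). Lipid droplet fluorescence (488 nm excitation, 500-530 nm channel) was read by laser-scanning cytometry and normalized to 20 uM Triacsin C.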

The mark [1] stands for this setting: measured here: cell count channel max response.
The mark [2] stands for this setting: measured here: lipid (BODIPY) channel AC50.
[3] abbreviates: measured here: lipid channel max response.
Where [4] appears, read: measured here: cell number channel AC50.

Each structure is given as a SMILES string. Some of the results follow. Further columns of the screen follow, without active or inactive calls. Most of these compounds were active or inconclusive in the main read-out, so they are no random draw. Words in brackets tell the shape of the fitted curve; partial curves, single points and poor fits give uncertain potencies.
Tags give direction and shape of the fitted curve.

Take `Cc1cc(C)c(S(=O)(=O)Nc2cccc(C(F)(F)F)c2)c(C)c1`: the max response under setting [1] came to 20.6% and the max response under setting [3] was determined as 32.2%. For the same molecule, the AC50 under setting [2] is 3980 nM [rising, full curve].
In the case of `N#Cc1cccc(NC(=O)N2CC[C@@]3(CCCN(S(=O)(=O)c4ccccc4)C3)C2)c1`, the max response under setting [1] is -0.345% and the max response under setting [3] was 5.43%. The AC50 under setting [4] is 3550 nM [rising, single point].
Turning to `COC(=O)c1c(C)cc(O)cc1O`, the max response was determined as 26.6% under setting [1] and 36.6% under setting [3]. Moreover, the AC50 under setting [2] was 17800 nM [rising, partial curve, poor fit].
`NC(=O)c1cc[n+](CC2=C(C(=O)O)N3C(=O)C(NC(=O)C(c4ccccc4)S(=O)(=O)[O-])C3SC2)cc1` (configuration not stated): the max response amounted to 20.5% under setting [1] and 34.8% under setting [3]. Besides, under setting [2], the concentration at half-maximal activity (AC50) is 39800 nM [rising, single point].
For the molecule `COC(=O)CC1[C@@]2(C)C[C@@]34OC5(C)OC6(CC[C@@]7(C)C(c8ccoc8)OC(=O)C(C(C)=O)C7[C@]6(O5)C(O)[C@@]3(O)C2O)[C@]14C` (some centres not stated), the max response by setting is: under setting [1], 23.6%; under setting [3], 30%. Moreover, under setting [2], the AC50 is 17800 nM [rising, partial curve, poor fit].
With `COc1ccc(Oc2ncc3ncc(=O)n(-c4ccc(OC)cc4)c3n2)cc1`, the max response runs as follows: under setting [1], 18.9%; under setting [3], 23%. In addition, the AC50 under setting [2] is 3160 nM [rising, full curve, poor fit].
In the case of `COc1ccc(NS(=O)(=O)c2ccc(N)cc2)nn1`, the max response is, setting by setting: under setting [1], 15.1%; under setting [3], 32.3%. In addition, the AC50 under setting [2] was 251 nM [rising, partial curve, poor fit].
Take `COc1ccc(-n2c(=O)c(C)nc3cnc(Nc4ccccc4)nc32)cc1`: the max response amounted to 7.63% under setting [1] and 11.8% under setting [3]. In addition, under setting [2], the AC50 was 112 nM [rising, partial curve, poor fit].
For the molecule `COc1cccc(Cn2c(=O)cnc3cnc(Nc4ccccc4)nc32)c1`, the max response is, setting by setting: under setting [1], 46.6%; under setting [3], -24.6%. Besides, the AC50 under setting [4] was 12600 nM [rising, partial curve].
On to `COCCn1c(=O)cnc2cnc(OCc3ccccc3)nc21`, for which the max response reads like this: under setting [1], 29.5%; under setting [3], 37.7%. Under setting [2], the AC50 is 200 nM [rising, full curve].
Take `Cc1ccc2c(c1)C(N1CCN(C)CC1)=Nc1cccnc1N2`: the max response reads like this: under setting [1], -8.85%; under setting [3], -7.41%. For the same molecule, the half-maximal activity concentration (AC50) under setting [4] was 3550 nM [falling, full curve, poor fit].
Consider `COCCn1c(=O)c(-c2ccc(Cl)cc2)nc2cnc(N3CCOCC3)nc21`, for which the max response turned out to be 21.1% under setting [1] and 24.3% under setting [3]. In addition, the AC50 under setting [2] was 2510 nM [rising, full curve, poor fit].
Regarding `CCNc1ncc2nc(-c3ccc(OC)cc3)c(=O)n(Cc3cccs3)c2n1`, the max response stood at 12.6% under setting [1] and 14.5% under setting [3]. The AC50 under setting [2] is 282 nM [rising, full curve, poor fit].
Consider `CN1CCN(c2ncc3nc(-c4ccccc4)c(=O)n(Cc4ccc(F)cc4)c3n2)CC1`, for which the max response under setting [1] worked out at 8.6% and the max response under setting [3] amounted to 1.11%. Moreover, the AC50 under setting [2] was 5620 nM [rising, partial curve, poor fit].
As to `CCNc1ncc2nc(-c3ccc(F)cc3)c(=O)n(C)c2n1`, the max response is, setting by setting: under setting [1], 20.3%; under setting [3], 28.7%. In addition, the AC50 under setting [2] is 794 nM [rising, full curve, poor fit].
With `CN(C)c1ncc2ncc(=O)n(Cc3cccs3)c2n1`, the max response under setting [1] came out at 21.9% and the max response under setting [3] came out at 28.1%. Moreover, the AC50 under setting [2] was 11.2 nM [rising, full curve, poor fit].
For the molecule `COc1c(CC(=O)c2cc3c(cc2O)OC(C)(C)C(O)C3)ccc2c1C=CC(C)(C)O2` (configuration not stated), the max response reads like this: under setting [1], -9.19%; under setting [3], -45.2%. The concentration at half-maximal activity (AC50) under setting [2] is 15800 nM [falling, partial curve, poor fit].
With `CC1CC[C@@]2(C(=O)O)CC[C@]3(C)C(=CCC4[C@@]5(C)CCC(O)C(C)(C)C5CC[C@@]43C)C2C1C` (some centres not stated), the max response runs as follows: under setting [1], 33.1%; under setting [3], 43.3%. Also, under setting [2], the AC50 was 39800 nM [rising, single point].
Turning to `O=c1c(-c2ccc(F)c(F)c2)nc2cncnc2n1Cc1ccccc1Cl`, the max response was 11.7% under setting [1] and 15.4% under setting [3]. For the same molecule, the AC50 under setting [2] is 25.1 nM [rising, full curve, poor fit].
Consider `O=C(O)C=Cc1ccc(Cn2ccnc2)cc1`, for which the max response reads like this: under setting [1], 25.7%; under setting [3], 32.5%. For the same molecule, under setting [2], the AC50 is 1000 nM [rising, full curve, poor fit].
As to `CNc1nc(-c2ccccc2C)nc2ccccc12`, the max response under setting [1] was -7.57% and the max response under setting [3] was -31.7%. For the same molecule, under setting [4], the AC50 is 1000 nM [rising, full curve].
`CCNc1ncc2nc(-c3ccc(F)cc3)c(=O)n(-c3ccc(OC)cc3)c2n1`: the max response under setting [1] was found to be 26.5% and the max response under setting [3] is -4.66%. Further, the half-maximal activity concentration (AC50) under setting [2] is 447 nM [rising, full curve, poor fit].
Regarding `COc1ccc(-c2nc3cnc(N(C)C)nc3n(Cc3ccc(F)cc3)c2=O)cc1`, the max response worked out at 29.3% under setting [1] and 40.4% under setting [3]. The AC50 under setting [2] is 2510 nM [rising, partial curve].
For the molecule `COc1ccc(C[C@H](N)C(=O)N[C@@H]2[C@H](O)[C@H](n3cnc4c(N(C)C)ncnc43)O[C@@H]2CO)cc1`, the max response is -13.6% under setting [1] and -41.6% under setting [3]. For the same molecule, the AC50 under setting [2] was 12600 nM [falling, partial curve, poor fit].
